In all, about 33,000 sequences were measured (“E-score (-0.5 to 0.5)”: median about -0.041, highest 2% from about 0.37 on). Some of the results follow.
target: T1, Ecm22 (UniProt Q05958); assay: PBM E-score (8-mer binding enrichment) (E-score (-0.5 to 0.5)); higher = stronger / more preferred TF binding; most listed sequences are background and not binding sites; conditions: protein concentration: 200 nM; construct: GST-full length
T1 sequence: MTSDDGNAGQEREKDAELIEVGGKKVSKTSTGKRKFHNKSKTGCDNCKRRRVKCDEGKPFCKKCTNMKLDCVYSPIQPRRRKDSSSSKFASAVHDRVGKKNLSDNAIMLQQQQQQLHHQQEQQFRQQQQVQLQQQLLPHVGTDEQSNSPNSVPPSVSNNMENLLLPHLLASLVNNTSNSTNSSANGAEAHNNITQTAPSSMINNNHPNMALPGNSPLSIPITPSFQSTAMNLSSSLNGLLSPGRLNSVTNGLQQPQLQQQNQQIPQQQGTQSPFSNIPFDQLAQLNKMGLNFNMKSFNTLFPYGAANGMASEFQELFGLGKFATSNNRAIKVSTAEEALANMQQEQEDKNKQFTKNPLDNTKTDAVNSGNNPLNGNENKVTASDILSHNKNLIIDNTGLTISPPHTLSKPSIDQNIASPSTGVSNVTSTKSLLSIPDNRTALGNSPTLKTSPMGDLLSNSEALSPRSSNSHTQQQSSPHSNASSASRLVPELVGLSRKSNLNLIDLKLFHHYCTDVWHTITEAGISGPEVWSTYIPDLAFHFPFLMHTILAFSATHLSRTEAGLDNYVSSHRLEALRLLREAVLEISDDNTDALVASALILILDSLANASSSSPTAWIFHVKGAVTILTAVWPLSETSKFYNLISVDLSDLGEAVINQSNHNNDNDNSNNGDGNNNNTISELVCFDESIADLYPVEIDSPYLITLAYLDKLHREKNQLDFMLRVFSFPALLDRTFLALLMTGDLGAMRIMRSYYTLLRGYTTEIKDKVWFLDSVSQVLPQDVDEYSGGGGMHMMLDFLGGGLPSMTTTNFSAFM
Protocol: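 Universal 'all 10-mer' protein binding microarrays (Agilent AMADID 015681) probed with GST-tagged S. cerevisiae TFs (full-length or DBD) made by in vitro transcription/translation (PURExpress), about 100-200 nM. Bound TF was detected with fluorescent anti-GST. Each ungapped 8-mer (which stands for itself and its reverse complement) is scored by the PBM enrichment score (E-score), a modified Wilcoxon-Mann-Whitney statistic from -0.5 to +0.5, computed with the Universal PBM Analysis Suite. Scale: above 0.35 generally sequence-specific binding.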

Sequence	PBM E-score
AAGATCGT	0.357
CGGAATAA	-0.0676
ATGGTAAA	-0.0721
CACACAGG	-0.0151
GTGTGTGA	-0.00185
GAATGGTA	-0.174
ATGGCAAC	-0.0475
AAATCGTA	0.393
GTTCTTCA	0.159
CGCTGTCA	-0.198
ACCAGTTA	-0.13
AATCCTCG	0.178
CCGTTTAA	0.441
AGTGTCTC	-0.13
ACAGACTC	-0.123
GATGTTGC	0.00895
GCTGCCAA	-0.174
CACCCACG	0.141
ATATGGCA	0.0782
TACGTGGA	0.149
CCTTGTCC	-0.19
AGTCAGCA	-0.209
ACAGGGGA	-0.106
CGTTGAAG	0.0641
AGCTTAAT	0.0921

Sequence	PBM E-score
CTCTGCTC	-0.0585
CCTCTAGA	-0.211
GCGAGTAC	0.324
ATACTTGC	-0.099
CCGAGGCC	0.117
CAACTGTC	-0.242
ATACTTCC	-0.0486
GACTGGGC	-0.249
ATACGAGA	0.484
ACGTGGGG	-0.136
GAATACTC	0.0101
CGATCTGC	0.0941
GCGAGGTA	0.285
GTCGATGA	0.0278
AGGTCAGA	-0.204
ATGCTCGG	0.106
TTAGTCAA	-0.147
CTCCCGGC	-0.113
CGTTGTCA	0.0335
AAACGTCT	0.149
AAGTGGAT	-0.147
CCGTGACA	-0.158
AGGCTTTG	-0.0925
CGGGTGGC	0.0254
GATCTGTA	-0.0176

Sequence	PBM E-score
AGGTCATG	-0.106
GTATCTGA	0.16
AAGGTGGG	-0.279
AACCTAAC	-0.0329
TGCCCAAA	-0.183
CCAGATAA	0.0609
GGCATTTA	-0.303
ATGTGTAC	0.17
AGCACTAC	-0.196
ATGAGCTG	-0.115
AAGTGCCT	-0.14
ACCCTGCG	-0.118
ATTCGCCC	-0.205
ATTAGCTA	-0.0396
CAACCGGC	-0.067
CAAGCAGA	-0.0616
ATAGCGCC	-0.144
GCGGAGGA	-0.0792
AAACGGAA	0.315
CAACTAAC	0.0369
CCAGACGC	-0.272
ACGCGTGG	0.0106
CCTATGGA	-0.192
CCTGGTGC	-0.129
AGTCCCAG	-0.0584

Sequence	PBM E-score
AAAAAATT	-0.0574
CCGTTAAC	0.198
GGGCCGCA	-0.0705
AGTTGGAC	-0.241
CTCCTTGA	-0.214
CACCAGGG	-0.226
CATGTTGG	-0.189
GGCAATCA	-0.144
ACCAAGCT	-0.0917
ACGAGTAT	0.382
AAATGAAG	0.126
ACTGCTGA	-0.19
AACGCGCA	0.0254
ACAAACCA	-0.187
ATACCCTG	0.0413
AGATCAAA	-0.111
CCTGTAGA	-0.254
GCCATCTA	-0.239
AGAATAAG	-0.163
CTAAGCCA	-0.267
ACTCCACG	-0.0229
ATAATAAC	0.126
CTGAGTAA	-0.28
CGTGACAC	0.0275
TATAGAGA	-0.0328

Sequence	PBM E-score
CGCGACTC	0.0599
CCATTTCA	-0.31
AGCAGATG	-0.176
AATCGAAA	0.00057
CTCATGTA	-0.011
GCAACGAC	0.417
AAAGCGGG	-0.194
CAAGAGTA	-0.0598
CCGACTCA	-0.0201
CGATCGGA	0.13
GAGACCAC	-0.0569
AGTTTGTA	-0.0485
CGATTACG	0.222
CGTATTCA	0.297
ATATCGAC	0.0252
AGGTTGAT	-0.144
ATACCAGC	-0.226
GACCTACC	0.0336
ATTTGAAG	-0.0985
GAGGTCCC	-0.11
TACTAGTA	-0.0318
AATTATCG	0.137
TGCGCACA	-0.0564
ATATTACC	-0.0733
GAGTTCGA	0.161

Sequence	PBM E-score
AATCGGGG	-0.161
CGCGGGGC	-0.15
GCTAGCAA	-0.0688
AGAAGAAA	0.0696
AATATAGC	-0.0398
ACTAGAGC	-0.15
CAGCCGCC	-0.103
GCTCTCGA	-0.189
ACATAGGA	-0.0572
AGTACGAG	0.456
CGACTTAG	0.21
AACGGCGT	0.242
GCTAACTA	0.0361
GCCCCTTA	-0.199
ACTCTTCG	0.173
GCCCTAAA	-0.212
GAGTTTAC	0.108
ACTCCAGT	-0.144
CTACTGTC	-0.113
ACCAAACG	0.348
ACTAACAT	0.0647
CTACACTC	-0.0285
TGCTACCA	-0.128
ACCTCTTG	-0.201
TAGCACGA	0.0752

Sequence	PBM E-score
AACCCGAA	0.188
AATCGAAG	0.0902
ATGGCTGA	-0.154
CGCCGGAC	-0.11
CACTCCGG	0.0206
CAATCCTG	-0.168
ATTTGCGG	0.0753
CCGATGCC	-0.115
TAGCGAGA	0.235
AACCCTCT	-0.256
AGCCTAGC	-0.209
CCGCGTCA	-0.051
AGACCCGA	0.175
GACTATCC	-0.0271
ATTAGTAG	-0.169
ACACCTCT	-0.16
CAGAGACA	-0.303
CTCCCATC	-0.124
GCCACGGA	-0.232
AACAACTT	-0.092
CGGCCTCA	0.0418
ACAACTTC	0.0243
ACACTTTG	-0.0412
GAATTAGA	-0.0857
GCTGCAAA	0.0183

Sequence	PBM E-score
AGCTCGTC	0.0121
TTATGAAA	-0.0342
CCGCAAAA	0.108
ATTAGACC	-0.0997
GTGGGAAA	-0.0405
CAACGACC	0.278
CCGATTCA	-0.0589
CGGGCCCA	-0.313
AGGACCCC	-0.202
CCGGGTAC	0.291
CTCACCCA	-0.134
AAATTCAT	-0.129
ATCGTCCG	0.103
CACCCGTA	0.239
ACTTCATG	-0.077
AGAGGAGC	0.00865
CCGCGAAC	0.109
AACAGTTA	-0.1
AATCCATG	-0.235
ACGCGCCG	0.0979
AGGGCACT	-0.202
GAGGGAAA	-0.0267
GCTACGCC	-0.22
CTCCCATA	-0.186
ATCTCTTG	-0.156

Sequence	PBM E-score
ATTGCAGA	-0.151
CCGTAACC	0.15
ACAGCCAC	-0.221
CACCCTGG	-0.102
CCTCATGC	-0.156
ACTCTGAG	-0.117
CCCCTTTA	-0.173
CGGTCGTC	-0.0294
ACCATGGT	0.0115
CACGGGAA	-0.0917
ATACTCTC	0.091
CCCCCACC	-0.317
GAGAACCA	-0.098
CCCAGACG	-0.0164
AGGCTCAG	-0.211
CCTAGGTA	-0.142
GGCGGAAA	-0.0985
ATACCCCC	-0.192
CGGGAAAC	0.251
CGAGCAGC	0.163
GAGGATCA	-0.132
GTGGTTGA	-0.189
TGCGGCCA	-0.131
AATTTAGT	0.0213
AGATGGAA	0.0413

Sequence	PBM E-score
AAGGCGTA	0.024
CGGTTCGC	0.151
CCAAATGG	-0.134
ATAGGCTG	-0.0836
ACTATGTC	-0.0189
AGCCTTGC	0.0339
AGTCAGGG	-0.37
ACGTAGGG	-0.161
GCTTCGAC	-0.151
GAAACTTA	-0.0558
CGTAGAAA	0.249
AGATTCAT	-0.191
AGGAAGCA	-0.105
AGTTTTTA	0.0856
CAGTCGCC	-0.21
TGAACCCA	-0.0944
CCTGAGGA	-0.0862
CAAGTGGA	-0.263
AAACTTTA	-0.0596
CGTACTAC	0.382
AATCTGGT	-0.0595
CACAACAA	0.015
AGCCGGAT	-0.0402
GCTCAGCA	0.0792
TAGTCCGA	0.123

Sequence	PBM E-score
GACCAAAC	0.026
AAGTATTA	-0.183
ACACCCGC	-0.134
AATAGGTG	-0.111
ACCCCTAC	-0.285
CTTGGACA	-0.0203
AAAAACAT	-0.0306
AGCCCTAT	-0.153
CTTACACC	-0.0282
AGTCCGCC	-0.00998
CACGTACA	0.216
ATAGTAAG	-0.0804
CAGCTTCG	0.0898
GCGAGTTA	0.191
GACTTCGA	-0.0883
CGCAACCG	0.157
GATTTAGA	-0.00744
AAGCGTAC	0.216
ATAGGATG	0.0535
AATCTATA	0.137
AGCGAGGC	0.313
CGGGGTGA	0.00026
TGAGGCCA	-0.0734
CCTTTTTA	0.109
CGAGGTTA	-0.0559

Sequence	PBM E-score
ACTGTGCA	0.0102
CATTGGAC	-0.122
AGCCTACG	0.0461
CGTAAATC	0.349
TCGGTGAA	0.0872
AAGCTTAC	0.029
TAACATGA	-0.0706
AAAACCTC	0.0279
GAGGGAGA	-0.0926
CGCCCTGC	0.0489
ATTAAGCA	-0.11
CAGTGCTC	-0.155
TAGAACGA	0.429
ACTCCGCC	-0.255
ACTCACCC	-0.187
AATATGTA	0.029
AGGTTCGC	0.112
ACGACAGG	0.339
TGAACGAA	0.434
CAAGTGAA	-0.154
ATACACCC	0.0584
GGAGTCCA	-0.281
TAATTAAA	-0.0387
CATCCCTC	-0.237
ATCATTGG	-0.215

Sequence	PBM E-score
TAAATGCA	0.0358
AGCGTTGC	0.123
AAGAGAAG	-0.0866
TAATCGCA	0.215
AGTCAGAG	-0.269
AGTGTTGC	-0.165
CAACGGCG	-0.0255
ACTCGGGG	-0.152
CGGCAAAC	0.116
ACATCGCT	0.0229
GGACTGTA	-0.208
AGGTTCCA	-0.318
CCTCCAGA	-0.236
AATGCGGT	-0.0656
AGGCAGAT	-0.115
CGTTTTAG	0.114
GGACCACA	-0.124
GCTCAGGA	-0.107
AAAGTGTT	-0.0118
ACGAAGTA	0.354
ATTATCGC	0.00427
CCAATTCC	-0.205
AACTGTGG	-0.238
CGGAAAAA	0.254
AGGGTATG	-0.0039

Sequence	PBM E-score
ATGGACAA	-0.0186
AGGCAGGC	-0.12
ACCAGAAC	0.0471
AGAAAGGA	-0.244
ATTTAACA	-0.0508
AATCAAAT	-0.143
GAGAGGAA	-0.048
CGCGTCAG	-0.123
ATACTCAT	0.0714
ACCGGGGA	-0.176
ACACTGCA	-0.165
ACGTTTGG	0.209
AAGACGAC	0.0418
AGCCAACC	0.0507
TGAGATCA	-0.0722
CTTCTTCC	-0.144
CTAGAGTC	-0.239
AGAGACTC	0.051
CGAGTGCG	0.201
